According to article PMC10726135:
The other results are listed elsewhere or left out. At the low end of the ranking, values are background and their order means little. Measured with an extract: partners may take part in the binding.

target: T1, HNF4alpha8 (COS-7 nuclear extract) (UniProt P41235-5); test: protein-binding microarray; conditions: COS-7 nuclear extract on double-stranded Agilent 4x180k PBM; binding buffer, salt, pH and temperature not given; high values mean tight binding; double strand, one strand shown; sequences stand for … in …GCCTAGGGAGATTAGAGTATCGGTCGA
T1 sequence: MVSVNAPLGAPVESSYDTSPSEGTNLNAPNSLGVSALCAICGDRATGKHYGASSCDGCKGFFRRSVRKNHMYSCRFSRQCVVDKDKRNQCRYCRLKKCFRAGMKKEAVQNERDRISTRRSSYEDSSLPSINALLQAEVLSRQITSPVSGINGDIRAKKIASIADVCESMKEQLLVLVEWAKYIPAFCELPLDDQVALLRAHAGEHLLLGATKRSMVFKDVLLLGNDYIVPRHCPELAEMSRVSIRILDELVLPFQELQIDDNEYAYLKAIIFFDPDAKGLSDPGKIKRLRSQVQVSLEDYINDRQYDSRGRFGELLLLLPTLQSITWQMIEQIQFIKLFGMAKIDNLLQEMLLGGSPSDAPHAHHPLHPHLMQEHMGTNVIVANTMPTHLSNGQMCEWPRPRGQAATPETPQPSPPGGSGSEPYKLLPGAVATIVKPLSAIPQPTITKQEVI

Sequence | binding signal (log2 normalized intensity)
TTTTGATGGTGGAGGGTCTTGCTTTGATGT | 1.05
CTCTTGAATTGGAAGGCAAAGTTCAACCCT | 4.17
AACCCAGTGCAATGCCTAAACCAGGATCCA | -1.42
TTAGTTTCCTTATCTGTAAAATGGACATAG | 1.38
AAGGTTTCCATCAAGCCTTTGACTCGAATG | -1.31
AAAAGATAAGGCGTAGTTCAGAGAAAACGA | -1.34
ACTTCTCCTCTTATCTTCAGGTTTGCTAAT | 1.72
GGGTTGGAGTCCAGAGTTCAGGTAGAGGGA | 2.42
ACACAGTACTTTGTACATGGGAATAGACAT | 0.975
CGAGCGTCCAAGCTCTTTCCATTTTTGCTC | -1.06
GGGTCAGTTTATCTAAGATTCCCCCTACCC | 4
TGGACTCTGGGATCTCAGGGTGGACTTTAA | 6.54
CAAAATAGACAAACAGCAATAGCAAGACTG | -1.3
ATGGAGGTAGGAGTATTTGGGTATGTGCCT | 0.813
TTTCAAAGCTCCAGTTCCAGGGATGTCTTT | 0.174
GTAAAATGAGCAAACAGAACTGTTAACTTT | -0.875
CTCTAATCTGGGACAAGGGGGAGGAGAGTA | -1.28
AATTACCCAACAGACTTTCCCCCTATTTCC | 3.37
GCAGTGGTTTGCAGTTGGAAAGCTGAGTTT | 0.629
TCCTCTTCCCTACCCCCTGGGAGTAACCTG | 3.13

Sequence | binding signal (log2 normalized intensity)
GCTTTTCTTTCTCAAGCCAGACTGGTTTTT | 0.38
AGCCACTTTCTTTGTCTGTGTAGACTCATC | 1.15
ACAGAGCCTGGTGTTTACTGGAGCCGAGTC | -0.000378
TGAGCCATCCTGAACAAATGTACTGGATAT | -0.391
GCACTTTGCACCCTATGTGTTTCTTCTGCT | 4.43
GTGTGGGGCAAATCTGAGGTCAAAGCTGTC | 1.95
GGGAGCCCTGGGGTAATAAATAAAGCCCTG | -1.43
GACTTTTCCAAGCTCTAGAACGCTGACTCC | -1.26
GCACAGATCATATGGCCCACAAAGCCTAAA | -1.35
GCCTGTCACCCAACCTCACCTAACCACATT | 1.21
TAAGGAAGATAATGGGTCCGAAGGTCAGCT | 7.16
ACTTTGACCTTGGCACTGAAGAATGTCTAA | 2.09
AAACCAAATCACAATTTTCAAGAACAAACA | -1.44
CAAAGGGTCAAGTTCAGATCCTGGCCATGC | 1.36
CCTGGGAGTAACCTGCTTGTTTTCCCAACA | -1.16
CTGGGGCAAAGGTTTCCTAAACAGTTACCG | 1.59
TGACCTTGGGCCAGTCGCTTAACCTCTTGA | 2.33
GTTAAACAGCAACTCAGGCAACAATGCCTT | -1.44
AATTTTTTTTTCTTATCTCACTGGATGTGT | 1.85
ATGGCTTATGCATGTTTATGTGAATTCCTG | 1.12
